# Out of some 52,000 compounds screened, about 1,700 (3.3%) were called active. Rule as the data show it: active = survival mostly below about 52% (no sharp cut-off); inactive = mostly above about 56%. This is one part of the list.
# Tested on: Wild type
# Test: growth inhibition of S. aureus wild type versus tarO mutant, primary screen, teichoic acid synthesis inhibitors, RN4220, OD600 (AID 463173)
# Details: S. aureus RN4220 wild type/DeltatarO growth, OD600, 18 h, active compounds read low, screened at 18.75 µg/mL (by protocol)
row,SMILES,survival
1,Cc1ccc(C)c(N2CCN(C3=C(c4ccccc4)C(=O)c4ccccc43)CC2)c1,inactive: 88%
2,CCN(Cc1ccccc1)C(=O)c1cc2c(s1)-c1c(C)cccc1OC2,inactive: 71%
3,Cc1ccc(Cl)cc1NC(=O)Cn1c(=O)n(Cc2ccc(C(=O)NCc3ccc4c(c3)OCO4)cc2)c(=O)c2ccccc21,inactive: 96%
4,Cc1nn(CC(=O)Nc2ccccc2F)c(=O)c2c(C)n(-c3ccc(Cl)cc3)nc12,inactive: 99%
5,O=c1c2cnn(-c3ccc(Cl)cc3)c2ncn1Cc1cccc(C(F)(F)F)c1,inactive: 122%
6,COc1ccc(NC(=O)CSc2cc(-c3ccccc3)nc(C)n2)cc1,inactive: 114%
7,CCN1CCN(c2c(S(=O)(=O)c3ccc(C)c(C)c3)cnc3ccc(F)cc23)CC1,inactive: 70%
8,CCOc1ccc(-c2csc(/C(C#N)=C/c3ccc(Br)cc3)n2)cc1,inactive: 71%
9,CCCn1c(NCc2ccc(N(CC)CC)cc2)nc2ccccc21,active: 0%
10,CCCN(CCC)C(=O)Cn1c(=O)n(-c2ccc(OC)cc2)c(=O)c2ccc(C(=O)NCc3ccc(C)cc3)cc21,inactive: 75%
11,CCC(=O)Nc1ccc2nc(SCCOc3ccc(C)cc3)sc2c1,inactive: 92%
12,CCS(=O)(=O)c1ncc(N(Cc2ccc(F)cc2)Cc2ccco2)c(C(=O)Nc2cc(C)ccc2C)n1,inactive: 84%
13,Cc1ccc2oc(-c3ccccc3C)nc2c1,inactive: 125%
14,CCOC(=O)C1CCN(C(=O)CN2c3ccc(CC)cc3-c3ccccc3S2(=O)=O)CC1,inactive: 113%
15,CN1CCN(c2nc3c(S(=O)(=O)c4ccccc4)nnn3c3ccsc23)CC1,inactive: 98%
16,Cc1ccc(-n2c(SCC(=O)Nc3cccc(C)c3)nc3c(oc4ccccc43)c2=O)cc1,inactive: 142%
17,CN(C)CCOC(=O)CC12CC3CC(C1)CC(CC(=O)OCCN(C)C)(C3)C2,inactive: 84%
18,CCOC(=O)C1CCCN(C(=O)c2ccc(-n3ccc4ccccc43)s2)C1 (stereo not drawn),active: -3%
19,COC(=O)c1c(C)oc2ccc(N(C(=O)c3ccncc3)S(=O)(=O)c3c(C)cc(C)cc3C)cc12,inactive: 141%
20,O=C(NCc1ccccc1)c1nc(S(=O)(=O)Cc2ccccc2)ncc1Cl,inactive: 42%
21,CC(C)(C)c1ccc(C(=O)NC2(C(F)(F)F)C(=O)Nc3c2c(=O)[nH]c(=O)n3-c2ccccc2)cc1 (stereo not drawn),inactive: 66%
22,Cc1cccn2c(=O)c3cc(C(=O)NCc4cccnc4)c(=N)n(CCCO)c3nc12,inactive: 76%
23,Cc1sc2ncn(CC(=O)N3CCN(c4ccc(Cl)cc4)CC3)c(=O)c2c1S(=O)(=O)N1CCN(c2ncccn2)CC1,inactive: 103%

# Reference: PubChem BioAssay AID463173 (ICCB-Longwood Screening Facility, Harvard Medical School, 2010)
